# Measurements published in the supplement of paper PMC11417369.
# The other results are listed elsewhere or left out.
# System: PfSIP2 AP2 domain 1 (GST-tagged)
# Test: gcPBM binding intensity (ln(normalized median fluorescence intensity)); higher = stronger DNA binding
# Summary of the method: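 Binding intensity values are the highest Masliner-normalised natural-log median intensity among replicate spots of either probe orientation. The binding step lasted 1 h in 1× PBS with 1% milk, 0.2 mg/ml BSA, 0.5% salmon testes DNA and 0.03% Triton X-100, using GST-tagged P. falciparum DNA-binding domains expressed in E. coli on an Agilent 4 × 180k array of primer-extended double-stranded 36-bp intergenic genomic probes plus negative controls. Alexa488 anti-GST antibody and a 488 nm scan detected bound protein.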
row,Sequence,gcPBM binding intensity (ln)
1,CCTTTTTTTTTTTTATGTACTAAAATAAAATTAGAA [XGTACX_site5956],7.19
2,TTTTTTTTGTGTATTTGTACATAATATATATATATA [XGTACX_site7092],8.79
3,TAATACCATTGTCATGCATGCACATTATTACTCTAA [TGCATGCA_site160],7.38
4,TCGTAATTTTTTTTTATATATTAGGAATTTATAAAA [XGTACX_negctrl_site409],6.92
5,ATATTATATTTCTTTTGTACATATTATATAATATAT [XGTACX_site7198],7.24
6,AAAAGGTATGTTATACATAGATATGCACATATATGT [TGCATGCA_negctrl_site96],9.51
7,GTAGGATTTTCTTTTGTGCGCAATATAAAAAGAAAA [GTGCAC_site9514],7.48
8,ATTAATATAAAAAGGTAAATGGATGTAATATATATA [XGTACX_negctrl_site2],7.72
9,AAAATTGTTATTTTATGTACTTATATTTATTTATTT [XGTACX_site3478],7.03
10,ATATATATAATATAATGTACATATATTTTATTTTTA [XGTACX_site3819],7.71
11,TATATACATTTATGTACACACACATATATGTATATT [CACACA_site8971],7.29
12,ATATATTAATTTAATTGTACGAATAAAAAAAAAAAA [XGTACX_site223],7.01
13,AAAGCACCCAAGAATACACACAAATATTATAAAAAA [CACACA_site111],8.37
14,TAATGTATTATATTTAGTACATATAAAAATAATTTT [XGTACX_site6886],7.02
15,ACGTATTAGATAAATACACACACAAGCATATATTTT [CACACA_site9135],7.03
16,ATATATATTGTACTAGTGCATATATATACATATATT,8.43
17,ATAAATAAAAACACAAAACAAAACAAAACAAAACAA [CACACA_negctrl_site1257],6.9
18,TTTCATCTATATGAAACACACAAAGGAAAAAAAATT [CACACA_site7869],7.01
19,TAATAAATGGCTAGTTGTACAGAAATATAAATATTA [XGTACX_site4579],6.79

row,Sequence,gcPBM binding intensity (ln)
1,AGATTCAAAAATAAAACATGCAAAAATAAAACGTGC [TGCATGCA_site501],7.31
2,CATTTTATCAAAAGTGGTACAACCCTTTCAAAAAAT [XGTACX_site341],6.93
3,TTTTTTTTTTTTTTTTGTACGTAATATATGATTAAT [XGTACX_site6876],6.98
4,AAATTACTTTCACAGTGTACTTGGAAAAAAAAAAGA [XGTACX_site1046],7.05
5,AGATATAATAAATATACACACATATATATATATATA [CACACA_site962],9.74
6,TAATTTTATATATGCACACAAAATATGTTCATATAA [CACACA_site4076],7.15
7,TGAAAAATGTTGATGTGTACTTATATAGTGTGTTAA [XGTACX_site2100],7.24
8,TTTAACATAAATTAAACACACAATATAATACATTAA [CACACA_site1237],6.72
9,ATATATATTTAAATGTGTACTCATTTATTTTATGTC [XGTACX_site4984],7.13
10,ATAGTATAACAGCAATGTACACATATTTGTGTATAT [XGTACX_site7899],6.99
11,TATATATATAAACACACACACACATATATATATATT [CACACA_site8814],7.96
12,TTTTTTTTTTTTGTCACACATATATTTGTATTTATA [CACACA_site5234],6.89
13,TGATATTTATAATAAATATTATAATAAAATCAAACA [XGTACX_negctrl_site219],6.86
14,ATATATATTTTTATTTGTACATAATTTTTTTTGTGA [XGTACX_site6378],7.3
15,TTTTTTTTTTTTTGCACACACATATATAGATATATA [CACACA_site7784],7.24
16,ATAAAATTGTTTAAATGTACATATGAACAGTCAGTA [XGTACX_site5140],7.53
17,ATATATGTAATAAATAGTACACACACACATATATAT [XGTACX_site2817],7.33
18,CACATACACATACAAACACACATTAGATATAAATAT [CACACA_site6854],7.24
19,AAAAAAAATTAATAGGGTACATGAAAAGTGGAATAT [XGTACX_site618],7.43

row,Sequence,gcPBM binding intensity (ln)
1,ATAGAAGAAATATGCACACATACATTGAAATGTTTT [CACACA_site321],7.43
2,CCATTAAGACACATTGCACACGTGCACCCATAGAAA [CACACA_site4388],12.4
3,TGAACACGCACAAATACACACAAAAAAAATAAATAA [CACACA_site6257],7.28
4,AACAAAATAGGGAACACACACATGTCAATATATAAA [CACACA_site2596],7.06
5,AAAAAAAAATTAAAAACACACATATAAATAAATATA [CACACA_site6845],6.9
6,TTTTTTTTTAAATAATGTACTTTTCATTATTTAGAT [XGTACX_site1706],6.95
7,TTTTTATTTATTAATACACACACACCCACCCACAAA [CACACA_site7965],8.02
8,AAAGAAAAAAATAATTGTACATTTATATTTAATTTA [XGTACX_site8003],6.64
9,TACTTTTTTTTTTTTTTTTTTTTTTTTTCCCTTTTT [CACACA_negctrl_site761],6.84
10,GTTTATTTATTATAATGTACATTAGTCTGAGGAGTT [XGTACX_site4035],7.42
11,TTTTATTTATATATAGTGCATATTATTATAAAACAA,9.36
12,ATATATATATATATATGTACATATGTTAATCTGCAT [XGTACX_site1068],9.63
13,CTTTTTTTCCATTAAGCATGCACATTCATATTTACT [TGCATGCA_site170],7.24
14,TATATATATATAGGTTGTACATTTTGATGTTTACGT [XGTACX_site5503],9.18
15,CACACCCACAAAAACACACACAAAGGTGTTCTTATA [CACACA_site1293],7.04
16,TGTAGTCTGGAGAAACGTACATAGTATCTGGTAACC [XGTACX_site4939],7.09
17,TATTTATTTTTTTGCACACATATTTTACATTTTAAT [CACACA_site3181],7.65
18,ATAACATTCATATTCACACAAAAATATACTACATAG [CACACA_site4529],7.09
19,TATATATATATATATACACACATATATATATTTATA [CACACA_site627],9.69
